Among all 45,000 compounds or so, about 200 (0.44%) were called active. Not shown: some 7% with an inconclusive outcome. Calls follow the shape of the dose curve; as a rule, active = well fitted activation curve with a large enough effect; inconclusive = small, poorly fitted or top-dose-only effect; inactive = no such curve, though single readings can be large or run the other way. The list shows a part of the results.
test: qHTS of TDP-43 Inhibitors: NCGC Sytravon Library Screen; conditions: yeast TDP-43 toxicity rescue, BacTiter-Glo growth, 24 h; series mostly up to 46.1 µM; growth rescue (activation): at the top concentration; also: 0% is about no effect; nearly all actives have a fitted effect of over 55% in size
How it was run: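 TDP-43-expressing yeast, pregrown in raffinose, seeded at OD600 0.02 in galactose medium with compound for 24 hr at 30 deg C. Growth read by BacTiter-Glo luminescence, so rescue of toxicity appears as activation.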

Row | Structure (SMILES) | growth rescue (activation)
1 | CN(C)S(=O)(=O)c1cccc(NC(=O)COC(=O)c2cc(-c3cccc(Br)c3)nc3ccccc23)c1 | inactive: 17.2%
2 | CCCCCCn1c(=O)c(Cc2ccccc2)c(O)c2ccccc21 | inactive: -0.364%
3 | COc1ccc(C(=O)N2CCC2(C)C(=O)NC(C)C)c(OC)c1 (stereo unspecified) | inactive: 5.12%
4 | CCN(CC(=O)Nc1ccc2c(c1)OCCO2)CC(=O)Nc1ccc(C)c(S(=O)(=O)N(C)C)c1 | inactive: 30%
5 | CCOC(=O)CC(NC(=O)c1cccc2c1C(=O)N(Cc1cccnc1)C2)c1ccc(OC(C)C)cc1 (stereo unspecified) | inactive: 14.5%
6 | CCOC(=O)c1cnc2c(c(C)nn2CC)c1NCCN1CCOCC1 | inactive: 0.929%
7 | COc1ccc(NC(=O)CSc2nnc(NC(=O)C3CCC3)s2)c(OC)c1 | inactive: -0.842%
8 | Cc1cccc(/C=N/NC(=O)c2cccc(NC(=O)c3ccccc3)c2)n1 | inactive: 11.9%
9 | N#C/C(=N\Nc1ccc(Cl)cc1)C(=N)N1CCCCCC1 | inactive: 11.2%
10 | C/C(N)=C(/C#N)C(=O)COC(=O)CNS(=O)(=O)c1ccc2ccccc2c1 | inactive: -2.23%
11 | Cc1ccc(S(=O)(=O)NC(C(=O)N2CCN(S(=O)(=O)c3cccc(F)c3)CC2)C(C)C)cc1 (stereo unspecified) | inactive: 11.1%
12 | O=C(c1cc(S(=O)(=O)N2CCOCC2)ccc1Cl)N1CCc2ccccc2C1 | inactive: 28.9%
13 | CCc1c(C)nc2c(-c3ccccc3OC)c(C)[nH]n2c1=O | inactive: -2.14%
14 | O=C1NCCCC1C(=O)N/N=C/c1ccccc1[N+](=O)[O-] (stereo unspecified) | inactive: -0.194%
15 | CCn1c(CNC(=O)Cc2ccc(OC)cc2)nnc1SCC(=O)Nc1ccc(C(=O)O)cc1 | inactive: 2.36%
16 | CN(C)S(=O)(=O)c1ccc(Cl)c(NC(=O)c2ccncc2)c1 | inactive: -0.558%
17 | CCn1ccnc1CN(C)Cc1cn(C)nc1-c1ccccc1F | inactive: 11.1%
18 | CN(C)S(=O)(=O)c1ccc(C(=O)NC(=O)CSc2nnnn2C)cc1 | inactive: 17.3%
19 | CC(C)C1N(C(=O)CN2CCCCC2)CCN1S(=O)(=O)c1ccccc1 (stereo unspecified) | inactive: -0.544%
20 | Cc1ccc(C(=O)Nc2ccc3c(c2)OCCO3)cc1S(=O)(=O)N1CCOCC1 | inactive: -17.9%
21 | CC(C)[C@H](NC(=O)c1ccco1)C(=O)Nc1ccc(OC(F)F)cc1 | inactive: -10.5%
22 | O=C(CNS(=O)(=O)c1ccccc1)N/N=C\c1ccc(Cl)cc1 | inactive: 16.3%

Row | Structure (SMILES) | growth rescue (activation)
23 | COc1ccc(C(=O)O)cc1S(=O)(=O)NCCc1ccccn1 | inactive: 29.4%
24 | CCOC(=O)c1ccc(NC(=S)N(CCCN2CCN(CC)CC2)Cc2cccs2)cc1 | inactive: -0.171%
25 | CCc1ccc(-n2cc(-c3ccc(F)cc3)[n+]3c2SCCC3)cc1 | inactive: -21%
26 | O=C1CCCN2N=C(SCC(=O)Nc3cccc(Cl)c3)SC2=N1 | inactive: -17.2%
27 | CC(C)C(=O)Nc1ccc(S(=O)(=O)Nc2ccccn2)cc1 | inactive: -4.55%
28 | Cc1ccc(-c2nc(N)sc2CC(=O)OCC(=O)NCCC(C)C)cc1 | inactive: -8.71%
29 | CC(C)NC(=O)NC(=O)CN1C(=O)NC(Cc2c[nH]c3ccccc23)C1=O (stereo unspecified) | inactive: -6.73%
30 | CC1=C(C)C(OCCBr)N(c2cc(O)c(Cl)cc2F)C1=O (stereo unspecified) | inactive: -11.8%
31 | O=C(CCNC(=O)OCc1ccccc1)NC1CCCCCC1 | inactive: 3.02%
32 | O=C1CN(CC(=O)Nc2ccc(SC(F)F)cc2)CCN1 | inactive: -16.3%
33 | CCN(CC)CCCNC(=O)c1ccc(N2CCCCC2)c(NS(=O)(=O)c2ccc(C)cc2)c1 | inactive: -1.89%
34 | Cn1ncc(N=Cc2ccccc2O)c1C(=O)N1CCOCC1 | inactive: 32.5%
35 | O=C(Cc1ccc(Cl)cc1)Nc1ccccc1C(=O)N1CCCC1 | inactive: -4.61%
36 | CCCSc1ncc(Cl)c(C(=O)N(Cc2ccccc2)c2ccc(OC)cc2)n1 | inactive: 18.2%
37 | CN1CCN(c2nnc(-c3ccc(F)cc3)c3ccccc23)CC1 | inactive: -2.04%
38 | NC(=O)C1CCN(CC(=O)Nc2cc(Cl)ccc2Oc2ccccc2)CC1 | inactive: -2.54%
39 | CC1CCC2(CC1)NC(=O)N(Cc1cccc(C(F)(F)F)c1)C2=O (stereo unspecified) | inactive: 16.2%
40 | CCCOC(=O)c1[nH]c2c(c1C)C(=O)CC(c1cccs1)C2 (stereo unspecified) | inactive: 8.72%
41 | COc1ccc(C(CNC(=O)Cc2c(F)cccc2Cl)N2CCCCC2)cc1 (stereo unspecified) | inactive: 0.461%
42 | COc1ccc(OCCSc2nc(-c3ccccc3)cc(=O)[nH]2)cc1 | inactive: 4.55%
43 | O=C(CN1CCCCC1)Nc1ccc(N2CCCCCC2)cc1 | inactive: -2.19%
44 | CC(NC(=O)Nc1ccc(O)cc1)(C(F)(F)F)C(F)(F)F | inactive: -6.37%

Row | Structure (SMILES) | growth rescue (activation)
45 | Cn1c(CC(=O)NNC(=O)c2ccc(Cl)nc2)nc2ccccc21 | inactive: 18.4%
46 | CC(=O)NCC(=O)OCC(=O)Nc1nc(-c2ccccc2)cs1 | inactive: -4.48%
47 | Cc1cccc(C(C(=O)NCc2ccc(F)cc2)N(C(=O)c2csnn2)C2CC2)c1 (stereo unspecified) | inactive: 6.62%
48 | CC(C)N1CCN(Cc2cn[nH]c2C2CCCCC2)CC1CCO (stereo unspecified) | inactive: 18.5%
49 | COc1ccc(CNC(=O)c2ccc(-c3cnn(C)c3)c3ccoc23)cc1OC | inactive: 25.8%
50 | CCN(CC)c1ccc(/C=C(\C#N)C(=O)c2ccc(Br)cc2)cc1 | inactive: 3.58%
51 | O=C(NC1CCCC1)C(c1ccncc1)N(Cc1ccccc1F)C(=O)c1csnn1 (stereo unspecified) | inactive: -4.78%
52 | Cc1nn(-c2ccccc2)c(C)c1C(=O)OCC(O)=C(C#N)c1nc2ccccc2[nH]1 | inactive: 8.39%
53 | COc1ccc(NC(=O)C(Cc2cc(C)cc(C)c2)C(C)C(=O)O)cc1 (stereo unspecified) | inactive: -14.7%
54 | O=C(CCc1nnc(COc2ccccc2)o1)NCc1ccccc1 | inactive: 4.24%
55 | COCCNC(=O)C1CCCN(C(=O)c2cc(-c3cccs3)oc2C)CC1 (stereo unspecified) | inactive: 4.33%
56 | COc1cc(-c2noc(CCC(=O)NC3CCCCC3)n2)cc(OC)c1OC | inactive: -21.6%
57 | NC(Cc1ccc(Cl)cc1)c1csc(NC(=O)Nc2ccccc2)n1 (stereo unspecified) | inactive: 6.77%
58 | Cn1cc([N+](=O)[O-])c(C(=O)NNC(=O)c2ccc([N+](=O)[O-])cc2Cl)n1 | inactive: 10.5%
59 | O=C(NC1CC1)C1CCN(c2ncccn2)CC1 | inactive: -10.7%
60 | Cc1ccc(S(=O)(=O)CCC(=O)Nc2nccs2)cc1 | inactive: -22.4%
61 | CC1(c2ccc3noc(-c4ccccc4)c3c2)OCCO1 | inactive: 20.5%
62 | CC(=O)c1ccc(NC(=O)CCOc2cc(C)ccc2C)cc1 | inactive: 27.3%
63 | O=C(NC(c1ccccc1)c1ccccc1)c1cccc(S(=O)(=O)NCc2ccccc2)c1 | inactive: 10.4%
64 | COCCN(C(=O)COC(=O)/C=C/c1cccc(C(F)(F)F)c1)c1c(N)n(CC(C)C)c(=O)[nH]c1=O | inactive: 18.9%
65 | CC(C)(CNC(=O)Cc1ccc(Cl)cc1Cl)N1CCCCC1 | inactive: -3.07%
66 | Fc1ccc(C2c3[nH]c4ccccc4c3CCN2Cc2ccoc2)cc1 (stereo unspecified) | inactive: -0.103%

Row | Structure (SMILES) | growth rescue (activation)
67 | CC(Oc1ccc(Cl)cc1)c1ccn[nH]1 (stereo unspecified) | inactive: 13.3%
68 | CC(=O)c1cccc(NC(=S)N2CCN(CCN3C(=O)c4cccc5cccc(c45)C3=O)CC2)c1 | inactive: 6.83%
69 | COC(CNC(=O)c1ccc2c(c1)nc(C)n2-c1cccc(C)c1)OC | inactive: 0.854%
70 | COc1ccccc1CN1CCNC(=O)C1CC(=O)O (stereo unspecified) | inactive: -7.49%
71 | COc1ccc(NC(=O)CCCc2nc3ccccc3c(=O)[nH]2)cc1Cl | inactive: 8.76%
72 | COc1ccc(-n2cnnc2SC(C)C(=O)Nc2cccc([N+](=O)[O-])c2)cc1 (stereo unspecified) | inactive: 12.7%
73 | COc1ccc(/C=C(/NC(=O)c2ccco2)C(=O)Nc2cccc(C(=O)O)c2)cc1 | inactive: 5.01%
74 | COC(=O)c1c(NC(=O)/C=C/c2ccco2)sc2c1CCC2 | inactive: 2.42%
75 | COc1ccc(S(=O)(=O)Nc2ccccc2C(=O)N2CCOCC2)cc1OC | inactive: -11.2%
76 | Cn1c(=O)c(=O)n(C)c2cc(C(=O)NCc3ccccc3Cl)ccc21 | inactive: 4.83%
77 | Cc1ccccc1Nc1nc(N)nc(COC(=O)c2c(C)noc2C)n1 | inactive: 13.7%
78 | CCCCN(CC)CCCNC(=O)c1cc2c(=O)n(CC)c3ccccc3c2s1 | inactive: -10.7%
79 | NS(=O)(=O)c1ccc(CCNC(=O)CNC(=O)c2ccc(F)cc2)cc1 | inactive: 6.14%
80 | COc1cccc(NC(=S)N2CCC(N(C)CC3CCCO3)CC2)c1 (stereo unspecified) | inactive: 2.11%
81 | COc1cc(COc2ccc(-c3nnco3)cc2)ccc1OC(F)F | inactive: 1.54%
82 | Cc1ccc(-c2nnn(CC(=O)N(c3ccccc3)C(C(=O)NCC3CCCO3)c3ccc(F)cc3)n2)o1 (stereo unspecified) | inactive: -13.5%
83 | Cc1csc(NC(=O)Cn2nc(C)c([N+](=O)[O-])c2C)n1 | inactive: 11%
84 | CCOc1ccc(N(C)S(=O)(=O)c2ccc(C)c(C(=O)N3CCN(Cc4ccc5c(c4)OCO5)CC3)c2)cc1 | inactive: 5.77%
85 | CCOC(=O)Cn1nc(NC(=O)c2ccc3c(c2)OCO3)cc1C | inactive: 6.56%
86 | COc1ccc(CNC(=O)CSc2nnc(NC(=O)C3CC3)s2)cc1 | inactive: -9.2%
87 | CCOc1ccc(/C=N/NC(=O)C(OC)c2ccccc2)cc1 (stereo unspecified) | inactive: 13.2%
88 | COc1ccc(C(=O)NCC(=O)OCC(=O)N2N=C(c3ccc(Cl)cc3)CC2c2ccco2)cc1OC (stereo unspecified) | inactive: 5.33%

Row | Structure (SMILES) | growth rescue (activation)
89 | Cc1ccc2[nH]cc(/C=C/c3cc[n+](C)cc3)c2c1 | inactive: -8.05%
90 | CS(=O)(=O)c1cccc(C(=O)OCC(=O)NC(=O)Nc2ccccc2F)c1 | inactive: 9.57%
91 | O=C(CCC1CCCCC1)NC1=NCCS1 | inactive: -18.9%
92 | CC(C)CCNc1ncnc2c1nnn2Cc1ccccc1 | inactive: 18.8%
93 | CCNC(=O)C1(C)CCN(C(=O)c2ccc(-c3ccccc3)cc2)C1 (stereo unspecified) | inactive: 3.37%
94 | Cc1ccccc1NS(=O)(=O)c1ccc2c(c1)n(C)c(=O)n2C | inactive: 9.77%
95 | Cc1c(NC(=O)c2ncn[nH]2)cccc1-c1nc2ccccc2s1 | inactive: 12.6%
96 | COc1cc2[nH]c(C(=O)NCc3ccccc3)cc2c(OC)c1OC | inactive: 13.3%
97 | O=[N+]([O-])c1cc(S(=O)(=O)N2CCOCC2)ccc1N1CCNCC1 | inactive: 21%
98 | CC1CCc2c(sc(NC(=O)CCCn3cnc([N+](=O)[O-])n3)c2C(N)=O)C1 (stereo unspecified) | inactive: 14.8%
99 | O=C1N=c2ccccc2=C1c1sc(=S)n(-c2ccc(O)cc2)c1O | inactive: 15.2%
100 | Cc1ccc(C)c(-n2c(CNC(=O)c3ccco3)nnc2SCC(=O)N2CCc3ccccc32)c1 | inactive: 24.9%
101 | O=C(CSc1cn[nH]n1)Nc1ccc(O)c(C(=O)O)c1 | inactive: 5.21%
102 | CCOC(=O)c1c(C)n(C)c2cc(CN(C)C)c(O)c(S(=O)(=O)c3ccccc3)c12 | inactive: 1.27%
103 | O=C(O)CCc1nn2c3ccccc3n(CC(=O)O)c2nc1=O | inactive: -16.3%
104 | O=C1CNC(=O)/C1=C\c1ccc(O)cc1 | inactive: 13%
105 | CC(OC(=O)C1CCC(=O)N1)C(=O)Nc1cc(Cl)cc(Cl)c1 (stereo unspecified) | inactive: 3.89%
106 | COC(=O)C1=C(C)N(Cc2cccnc2)C(=O)/C1=C\c1sccc1C | inactive: 5.61%

Source: PubChem BioAssay AID1347073 (National Center for Advancing Translational Sciences (NCATS), 2019)
